Assay results published in PubChem BioAssay AID485367 (National Center for Advancing Translational Sciences (NCATS), 2010).
Among all 330,000 compounds or so, about 560 (0.17%) were called active. The shares of active, inactive and inconclusive entries below differ from those in the screen. Calls come from the whole dose curve; as a rule, active = well fitted inhibition curve with a large enough effect; inconclusive = small, poorly fitted or top-dose-only effect, or effect the other way; inactive = flat fitted curve, though single readings scatter. No potency is given beside an inconclusive call; the fits are too rough.

Biological target: ATP-dependent 6-phosphofructokinase (Trypanosoma brucei brucei) (UniProt O15648)
UniProt O15648, sequence (O15648 whole entry, looked up): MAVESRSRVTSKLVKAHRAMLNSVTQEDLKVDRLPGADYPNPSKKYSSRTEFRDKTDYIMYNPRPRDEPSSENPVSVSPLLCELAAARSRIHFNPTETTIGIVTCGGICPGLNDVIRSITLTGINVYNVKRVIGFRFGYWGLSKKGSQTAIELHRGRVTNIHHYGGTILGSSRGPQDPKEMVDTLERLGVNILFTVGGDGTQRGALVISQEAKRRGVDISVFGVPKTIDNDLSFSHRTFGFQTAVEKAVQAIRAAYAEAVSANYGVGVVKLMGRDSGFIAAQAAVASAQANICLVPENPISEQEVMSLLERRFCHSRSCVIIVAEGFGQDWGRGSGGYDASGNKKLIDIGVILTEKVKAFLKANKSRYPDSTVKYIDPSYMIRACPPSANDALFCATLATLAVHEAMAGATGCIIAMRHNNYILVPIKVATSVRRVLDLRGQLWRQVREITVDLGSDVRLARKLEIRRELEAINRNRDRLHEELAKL
Assay: qHTS Assay to Find Inhibitors of T. brucei phosphofructokinase; note: nearly all actives have a fitted effect of over 60% in size
Settings: T. brucei PFK, ADP-Glo luminescence; series mostly up to 57.5 µM
Outline: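 In TEA buffer at pH 8.0 with 5 mM MgCl2, enzyme (1.25 nM) converted F6P (0.5 mM) and ATP (0.1 mM) for 45 min at room temperature. ADP product was read by luciferase luminescence.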
Potency is the fitted concentration of half-maximal effect; tags give direction and shape of the fitted curve.

Q: For `O=C(COC(=O)C1CC(=O)N(Cc2ccco2)C1)c1ccc(OC(=O)c2ccccc2)cc1` (stereo unspecified), which Potency is on record?
A: The Potency was inconclusive [falling, single point].

Q: For `O=C(O)CCNc1ccc(NCCC(=O)O)c2c1C(=O)c1ccccc1C2=O`, which Potency is on record?
A: The Potency was inconclusive [activator, single point].

Q: Which Potency does the source give for `CCOC(=O)C1=C(Nc2ccccc2)CC(C)(O)C(C(=O)OCC)C1c1ccccc1` (stereo unspecified) here?
A: Its Potency is inconclusive [activator, single point].

Q: Which Potency does the source give for `O=C(O)CC(C(=O)O)N1C(=O)/C(=C/C=C/c2ccco2)SC1=S` (stereo unspecified) here?
A: Its Potency is active: 8.49 µM.

Q: How did the Potency turn out when `COc1cccc(N2CCN(C(=O)c3cccnc3)CC2)c1` was run?
A: Its Potency is inconclusive [falling, single point].

Q: `CC12CCC(C/C1=N\N=C1\NC(=O)/C(=C\c3ccc(Cl)cc3)S1)C2(C)C` (stereo unspecified) was tested. Which Potency did it give?
A: Its Potency is “inactive”.

Q: `O=C(Cc1ccccc1F)Nc1nc(-c2ccc(F)c(F)c2)cs1` was tested. Which Potency did it give?
A: Its Potency is inconclusive [falling, single point].

Q: `O=C(Nc1ccc(F)c(F)c1)c1ccc(-n2cncn2)c([N+](=O)[O-])c1` was tested. Which Potency did it give?
A: Its Potency is inconclusive [activator, single point].

Q: For `Nc1n[nH]c(=S)n1/N=C1/C(=O)Nc2ccccc21`, which Potency is on record?
A: The Potency was inconclusive [falling, partial curve].

Q: With `CC(=O)N(C)c1ccc(NC(=O)COc2ccc(Br)cc2C)cc1` as the compound, how does the Potency read?
A: The Potency was inconclusive [falling, single point].

Q: For `CC1CC(C)(C)NC(=O)O1` (stereo unspecified), which Potency is on record?
A: The Potency was “inactive”.

Q: Which Potency does the source give for `O=C(N/N=C/c1ccccn1)c1ccco1` here?
A: The Potency was inconclusive [falling, single point].

Q: With `C/C(=N/OC(=O)c1ccc(C)cc1)c1cccs1` as the compound, how does the Potency read?
A: The Potency was inconclusive [falling, single point].

Q: Which Potency does the source give for `CC(=O)C(=Nc1ccccc1Cl)NNc1ccc(Cl)cc1` here?
A: Its Potency is inconclusive [falling, full curve].

Q: For `O=C(Nc1ccc2c(c1)OCCO2)c1cc(-c2ccccn2)nc2ccc(Br)cc12`, which Potency is on record?
A: Its Potency is “inactive”.

Q: Which Potency does the source give for `O=C(O)COc1ccccc1C(Nc1ccccn1)c1cc(Cl)c2cccnc2c1O` (stereo unspecified) here?
A: Its Potency is “inactive”.

Q: For `Cc1ccc(-c2ccc(/C=N/N=C3/NC(=O)C(CC(=O)O)S3)o2)c([N+](=O)[O-])c1` (stereo unspecified), which Potency is on record?
A: Its Potency is inconclusive [activator, partial curve].

Q: For `O=C(Nc1cccc(S(=O)(=O)NC2=NCCCCC2)c1)C1COc2ccccc2O1` (stereo unspecified), which Potency is on record?
A: The Potency was inconclusive [falling, single point].

Q: For `O=C1C=CC(=O)N1CCCCCCN1C(=O)C=CC1=O`, which Potency is on record?
A: The Potency was inconclusive [falling, full curve].

Q: Which Potency does the source give for `COc1ccc(N/C=C(\C2OC(=O)c3ccccc32)[N+](=O)[O-])cc1` (stereo unspecified) here?
A: Its Potency is inconclusive [activator, partial curve].

Q: Which Potency does the source give for `Cc1ccccc1-c1cc(C(=O)Nc2sc(C)c(C)c2C(N)=O)c2ccccc2n1` here?
A: Its Potency is “inactive”.

Q: With `Cc1ccn(-c2cc(O)c(-n3ccc(C)n3)cc2O)n1` as the compound, how does the Potency read?
A: The Potency was inconclusive [activator, full curve].

Q: With `COc1ccc(C(=O)Nc2cc3c4c(c2)CC(=O)N4CCC3)cc1` as the compound, how does the Potency read?
A: Its Potency is “inactive”.

Q: For `Cc1c(Cl)cccc1NC(=O)C(=O)NNC(=O)c1ccccc1F`, which Potency is on record?
A: The Potency was inconclusive [activator, partial curve].

Q: For `CCOc1ccc(-c2nc[nH]c2[N+](=O)[O-])cc1`, which Potency is on record?
A: The Potency was “inactive”.

Q: With `O=C(O)c1ccc(Cl)c(S(=O)(=O)Nc2ccc3cn[nH]c3c2)c1` as the compound, how does the Potency read?
A: The Potency was inconclusive [activator, partial curve].

Q: How did the Potency turn out when `CCOC(=O)C1=C(C)NC(C)=C(C(=O)OCC)C1C(=O)OCC(=O)NCc1ccc(F)cc1` was run?
A: Its Potency is inconclusive [falling, single point].

Q: How did the Potency turn out when `Cc1ccc(C(=O)N2CCN(S(=O)(=O)c3ccccc3[N+](=O)[O-])C2)cc1` was run?
A: Its Potency is inconclusive [activator, single point].

Q: With `Cc1ccc(Nc2nnc(SCC(=O)NCc3ccco3)s2)cc1` as the compound, how does the Potency read?
A: Its Potency is inconclusive [falling, single point].

Q: With `COc1ccc(/C=C/c2nc3ccccc3n2C)cc1` as the compound, how does the Potency read?
A: The Potency was inconclusive [falling, partial curve].

Q: With `N#C/C(=C\c1ccc(-c2ccccc2C(=O)O)o1)c1nc2ccccc2[nH]1` as the compound, how does the Potency read?
A: Its Potency is “inactive”.

Q: How did the Potency turn out when `O=C(c1cc(-c2ccc(Cl)s2)nc2ccccc12)N1CCOCC1` was run?
A: The Potency was inconclusive [falling, single point].

Q: For `O=C(NCc1ccc(Cl)c(Cl)c1)c1cccnc1`, which Potency is on record?
A: The Potency was active: 23.9 µM.

Q: How did the Potency turn out when `COCCNC(=O)C(c1ccc(C)o1)N(Cc1cccs1)C(=O)c1snc(C(N)=O)c1N` (stereo unspecified) was run?
A: Its Potency is inconclusive [falling, single point].

Q: With `COCCCN(C(=O)CSCc1c(C)noc1C)c1c(N)n(Cc2ccccc2)c(=O)[nH]c1=O` as the compound, how does the Potency read?
A: The Potency was inconclusive [falling, single point].

Q: With `COc1cc(C=NNc2ccc(S(=O)(=O)Nc3ccccc3C(=O)O)cc2[N+](=O)[O-])ccc1O` as the compound, how does the Potency read?
A: The Potency was inconclusive [activator, single point].

Q: `CCOc1ccc(OCC(=O)N2CCOCC2)cc1` was tested. Which Potency did it give?
A: Its Potency is inconclusive [activator, partial curve].

Q: With `CC(C)(CNC(=S)NCCc1ccccc1)CNC(=S)NCCc1ccccc1` as the compound, how does the Potency read?
A: The Potency was “inactive”.

Q: With `CC(=O)Nc1ccc(NC(=O)CSc2nnnn2-c2ccc(F)cc2)cc1` as the compound, how does the Potency read?
A: Its Potency is “inactive”.

Q: How did the Potency turn out when `CCOC(=O)C1CCN(C(=O)Nc2ccc3nc(-c4ccco4)c(-c4ccco4)nc3c2)CC1` was run?
A: Its Potency is inconclusive [falling, full curve].

Q: For `Cn1nnnc1SCC(=O)N1CCN(c2ccc(Cl)cc2)CC1`, which Potency is on record?
A: Its Potency is “inactive”.

Q: Which Potency does the source give for `CC(=O)Nc1ccc(S(=O)(=O)N2CCSC2c2ccco2)cc1` (stereo unspecified) here?
A: The Potency was “inactive”.

Q: `Cn1c(N)c(C(=O)COC(=O)Cc2ccc(Cl)c(Cl)c2)c(=O)n(C)c1=O` was tested. Which Potency did it give?
A: The Potency was active: 9.53 µM.

Q: `O=C(CSc1nc(-c2ccccc2)nc2c1Cc1ccccc1O2)Nc1ccccc1` was tested. Which Potency did it give?
A: The Potency was “inactive”.

Q: `CC(=C\C(=O)O)/C(=C\c1cccc2ccccc12)C(=O)O` was tested. Which Potency did it give?
A: The Potency was inconclusive [activator, partial curve].

Q: Which Potency does the source give for `Fc1ccc(/C=N/NC(=S)NCCc2ccccc2)cc1F` here?
A: Its Potency is “inactive”.
